According to PubChem BioAssay AID1345082 (National Center for Advancing Translational Sciences (NCATS), 2018):
Out of some 94,000 compounds screened, about 4,000 (4.3%) were called active. The shares of active, inactive and inconclusive entries below differ from those in the screen. Calls follow the shape of the dose curve; as a rule, active = well fitted inhibition curve with a large enough effect; inconclusive = small, poorly fitted or top-dose-only effect; inactive = no such curve, though single readings can be large or run the other way. A potency beside an inconclusive call is a rough fit, not a confirmed value.

Assay: Cytotoxic Profiling in NIH 3T3 Cell Line of Diverse Libraries Using Quantitative High-Throughput Screening; also: nearly all actives have a fitted effect of over 55% in size
Conditions: NIH 3T3 viability, CellTiter-Glo ATP luminescence, 48-72 h; activity change, negative = cytotoxicity: at 96.7 µM (top of the series); series mostly up to 96.7 µM
Summary of the method: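 Viability of NIH 3T3 cells after 48 or 72 hr compound treatment at 37 °C was assessed by CellTiter-Glo, with luminescence imaged following a 10 min room-temperature step.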
% is scaled to controls: 0 for no effect and ±100 for the full control effect; potency is read from the fitted curve at half-maximal effect; tags tell the direction and shape of the fitted curve.

Compound | Potency | activity change, negative = cytotoxicity
CCN1c2cc(C(=O)Nc3cccc(C#N)c3)ccc2C(=O)N2CCCCC21 (configuration not stated) | inconclusive: 35.5 µM [inhibitor, partial curve] | –
Cc1noc([C@H]2CCN(S(=O)(=O)c3ccc4c(c3)CCC4)C[C@H]2NC(=O)C2CC2)n1 | – | inactive: -12.7%
CN(Cc1ccccc1)C(=O)c1ccnc(-c2nnc3ccc(N4CCOCC4)nn23)c1 | inconclusive: 89.1 µM [inhibitor, partial curve, poor fit] | –
CC(C)N1C(=O)OCC12CCN(Cc1cccc(C#N)c1)C2 (configuration not stated) | inconclusive: 100 µM [inhibitor, single point] | –
COc1cccc(NC(=O)Cn2c(N(C)Cc3ccccc3)nc(C)cc2=O)c1 | inconclusive: 35.5 µM [inhibitor, partial curve, poor fit] | –
COCCn1ncc(N2CCCC(CC(=O)Nc3cc(OC)ccc3OC)C2)cc1=O (configuration not stated) | – | inactive: -8.51%
O=C1CN(C(=O)c2ccc(Cl)cc2)CC(O)CN1Cc1ccc(Cl)cc1 (configuration not stated) | – | inactive: -40.2%
COc1cccc(N2CCN(C(=O)CCC[C@H]3NC[C@@H]4C[C@H]3CN(Cc3ccccc3)C4)CC2)c1 | inconclusive: 50.1 µM [inhibitor, partial curve, poor fit] | –
COc1ccc(C(=O)N2CCC3(CC2)NC(=O)N(Cc2cccc(Cl)c2)C3=O)cc1 | inconclusive: 44.7 µM [inhibitor, partial curve, poor fit] | –
COc1ccc(-c2[nH]nc3ncc(-c4cccc(N(C)C)c4)nc23)c(C)c1 | inconclusive: 31.6 µM [inhibitor, partial curve, poor fit] | –
O=C(NC1CC1)[C@@H]1C[C@H](Oc2ccccc2)CN1C(=O)CCC1CCCC1 | – | inactive: -28.4%
CCOc1ccccc1C(=O)NC1CCN(c2cnn(C)c(=O)c2)CC1 | inconclusive: 50.1 µM [inhibitor, partial curve, poor fit] | –
Cc1cc(C(F)(F)F)nn1CC(=O)NCCc1ncc(C)n1C(C)C | – | inactive: -0.46%
O=C(NCc1ccc(Cl)cc1)c1nc2cccnc2n(C2CCCCC2)c1=O | inconclusive: 50.1 µM [inhibitor, partial curve, poor fit] | –
CC(=O)Nc1ccc(S(=O)(=O)N[C@@H]2C=C[C@@H](c3c(C)nn(-c4ccc(C(C)(C)C)cc4)c3C)C2)cc1 | inconclusive: 56.2 µM [inhibitor, partial curve, poor fit] | –
O=C1N[C@@H](Cc2c[nH]c3ccccc23)C(=O)N2CCN(C(=O)c3cccnc3)C[C@@H]12 | – | inactive: 4.09% [at 138 µM]
CN(C)Cc1ccc(-c2cc3c(ccn3Cc3cccnc3)c(C3=CCOCC3)n2)cc1 | active: 25.1 µM | –
